{"source": "PubChem BioAssay AID504845", "about": "(National Center for Advancing Translational Sciences (NCATS), 2011)", "note": "“And” between values parts separate entries of the source, which are not always exact repeats. Equal entries are not always repeated. In all, about 390,000 compounds went through this assay and about 150 (0.038%) were called active. About 3% were inconclusive and are not listed. Calls come from the whole dose curve; as a rule, active = well fitted inhibition curve with a large enough effect; inconclusive = small, poorly fitted or top-dose-only effect; inactive = no such curve, though single readings can be large or run the other way. Only a part is listed here, and it is no random draw. A structure can be active in one record and inactive in another. % is set by controls: 0 for no effect and ±100 for the full control effect; potency is the fitted concentration of half-maximal effect."}
{"target": "Regulator of G-protein signaling 4 (Homo sapiens) (UniProt P49798)", "sequence (P49798 whole entry, looked up)": "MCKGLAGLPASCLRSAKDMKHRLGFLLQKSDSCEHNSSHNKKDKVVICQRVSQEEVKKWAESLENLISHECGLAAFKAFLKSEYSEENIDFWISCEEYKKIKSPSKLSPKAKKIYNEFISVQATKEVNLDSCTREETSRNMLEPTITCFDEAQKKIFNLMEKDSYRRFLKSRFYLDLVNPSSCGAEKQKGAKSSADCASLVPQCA", "assay": "Inhibitors of Regulator of G Protein Signaling (RGS) 4: qHTS; note: nearly all actives have a fitted effect of over 75% in size", "details": "Transcreener GDP fluorescence polarization, RGS4-accelerated GTP hydrolysis; series mostly up to 114 µM; activity change, negative = inhibition: at the top concentration", "method_in_brief": "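MLSMR compounds (23 nl, pin-transferred) preincubated 10 min at room temperature with a 500nM (2x) first reagent, then RGS4 at 900nM (2x) plus Transcreener GDP mix added; fluorescence polarization (620/688 nm) read before and after 90 min at 30 °C.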"}
{"smiles": "CCCCN(CC)C(=O)c1cc2c(=O)n3cccc(C)c3nc2s1", "activity change, negative = inhibition": "inactive: -7.01%"}
{"smiles": "CCCCC1C(=O)N(c2ccccc2)N(c2ccccc2)C1=O", "activity change, negative = inhibition": "inactive: -19.3%"}
{"smiles": "Nc1ncnc2c1nc(Br)n2[C@@H]1O[C@@H]2COP(=O)(O)O[C@H]2[C@H]1O", "activity change, negative = inhibition": "inactive: 15.6%"}
{"smiles": "O=C(O)Cc1ccc(O)c(O)c1", "activity change, negative = inhibition": "inactive: 2.61%"}
{"smiles": "O=C(NCc1ccccc1)c1nc(S(=O)(=O)Cc2ccccc2)ncc1Cl", "activity change, negative = inhibition": "inactive: -15.5%"}
{"smiles": "O=C(NCCN1C(=O)S/C(=C/c2cccnc2)C1=O)C1=NN(c2ccccc2)C(=O)CC1", "activity change, negative = inhibition": "inactive: -37.7%"}
{"smiles": "C[C@H](Cc1ccccc1)Nc1ncnc2c1ncn2[C@@H]1O[C@H](CO)[C@@H](O)[C@H]1O", "activity change, negative = inhibition": "inactive: 0%"}
{"smiles": "CC(=O)Nc1nc2c(s1)C(=O)NCCC2", "activity change, negative = inhibition": "inactive: 54.3%"}
{"smiles": "CN(C)CCC(c1ccccc1)c1ccccn1", "note": "(stereo not drawn)", "Potency": "inactive"}
{"smiles": "CC(=O)OC(C)C[N+](C)(C)C", "note": "(stereo not drawn)", "Potency": "inactive"}
{"smiles": "O=C(O)c1ncc(-c2ccccc2)cn1", "activity change, negative = inhibition": "inactive: 54.3%"}
{"smiles": "CCN1/C(=C/C(C)=O)Sc2ccc(OC)cc21", "Potency": "inactive"}
{"smiles": "C[C@H]1c2cccc(O)c2C(O)=C2C(=O)[C@]3(O)C(O)=C(C(N)=O)C(=O)[C@@H](N(C)C)[C@@H]3[C@@H](O)[C@@H]21", "activity change, negative = inhibition": "inactive: -4.52%"}
{"smiles": "COc1cc(CC(=O)O)ccc1O", "activity change, negative = inhibition": "inactive: 19.3%"}
{"smiles": "O=c1[nH]c2cc(Cl)ccc2c(O)c1-c1ccc(Oc2ccccc2)cc1", "activity change, negative = inhibition": "inactive: 12.8% [at 56.9 µM]"}
{"smiles": "CCNC(=O)C(C)Sc1ccc(Cl)cc1", "note": "(stereo not drawn)", "activity change, negative = inhibition": "inactive: 58.7%"}
{"smiles": "Clc1ccccc1C(c1ccccc1)(c1ccccc1)n1ccnc1", "activity change, negative = inhibition": "inactive: -4.7%"}
{"smiles": "CN(C)CCOC(c1ccccc1)c1ccccc1", "note": "(tested in a mixture with another compound)", "activity change, negative = inhibition": "inactive: -1.48%"}
{"smiles": "Cc1cc(/C([O-])=C(/C(=S)Nc2ccc(F)cc2)[n+]2ccccc2)c(C)n1-c1ccc(F)cc1", "activity change, negative = inhibition": "inactive: -40.9%"}
{"smiles": "Nc1cc(N2CCCCC2)nc(N)[n+]1OS(=O)(=O)[O-]", "activity change, negative = inhibition": "inactive: -50% [at 56.9 µM]"}
{"smiles": "O=C1S/C(=C\\c2ccc(N3CCOCC3)o2)C(=O)N1Cc1ccc(F)cc1", "activity change, negative = inhibition": "inactive: -94.1%"}
{"smiles": "N[C@@H](CSS(=O)(=O)O)C(=O)O", "Potency": "inactive"}
{"smiles": "CC(C)(Oc1ccc(C2CC2(Cl)Cl)cc1)C(=O)O", "note": "(stereo not drawn)", "Potency": "inactive"}
{"smiles": "S=c1nc[nH]c2nc[nH]c12", "activity change, negative = inhibition": "inactive: -38.3%"}
{"smiles": "CNC1(C)C2CCC(C2)C1(C)C", "note": "(stereo not drawn)", "activity change, negative = inhibition": "inactive: 5.56% [at 56.9 µM]"}
{"smiles": "OCc1ccc(-c2nn(Cc3ccccc3)c3ccccc23)o1", "Potency": "inactive and active: 23.8 µM"}
{"smiles": "CO/N=C(\\C(=O)N[C@@H]1C(=O)N2C(C(=O)O)=C(COC(C)=O)CS[C@H]12)c1csc(N)n1", "note": "(stereo in doubt)", "Potency": "inactive"}
{"smiles": "NNC(=O)Cn1c(SCc2ccccc2)nc2ccccc21", "Potency": "inactive"}
{"smiles": "CC(C)CC(=O)NC1(C(F)(F)F)NC(=O)N(c2ccccc2)C1=O", "note": "(stereo not drawn)", "activity change, negative = inhibition": "inactive: 58.9%"}
{"smiles": "COC(=O)c1c(C)nsc1NC(=O)Oc1ccccc1", "activity change, negative = inhibition": "inactive: 93.9%"}
{"smiles": "COc1ccc(C(=O)N/C(=C/c2ccc(Cl)cc2)C(=O)NCc2ccncc2)cc1", "activity change, negative = inhibition": "inactive: 74.9%"}
{"smiles": "COc1ccc(CCN2C(=O)C3C4CC(C5C(C(=O)NN)=NOC45)C3C2=O)cc1OC", "note": "(stereo not drawn)", "activity change, negative = inhibition": "inactive: 59.2%"}
{"smiles": "CCN1CCC[C@H]1CNC(=O)c1cc(S(N)(=O)=O)ccc1OC", "Potency": "inactive"}
{"smiles": "Cc1cc(C)c2nc(SCCc3ccccc3)nc(C)c2c1", "activity change, negative = inhibition": "inactive: 73.5%"}
{"smiles": "COc1ccc(CCCOC(Cn2ccnc2)c2ccc(OC)cc2)cc1", "note": "(stereo not drawn)", "activity change, negative = inhibition": "inactive: 360% [at 56.9 µM]"}
{"smiles": "O=C(O)c1cc(-c2ccco2)nc2ccc(Br)cc12", "activity change, negative = inhibition": "inactive: -7.8%"}
{"smiles": "Cn1cc(C(=O)NS(=O)(=O)Nc2ccc(Br)cn2)c2ccccc21", "activity change, negative = inhibition": "inactive: 82.6%"}
{"smiles": "O=C1c2ccccc2-c2n[nH]c3cccc1c23", "activity change, negative = inhibition": "inactive: -11.1%"}
{"smiles": "C/C=C1\\COC(C(=O)NCCCN2CCCC2=O)(C(F)(F)F)C=C1C=C(C)C", "note": "(stereo not drawn)", "activity change, negative = inhibition": "inactive: -1.03%"}
{"smiles": "CC(CN1c2ccccc2Sc2ccccc21)N(C)C", "note": "(stereo not drawn)", "activity change, negative = inhibition": "inactive: 0.087%"}
{"smiles": "CCOC(=O)C1=C(C)NC(C)=C(C(=O)OC)C1c1cccc([N+](=O)[O-])c1", "note": "(stereo not drawn)", "Potency": "inactive"}
{"smiles": "N[C@@H](C(=O)O)c1ccc(O)c(C(=O)O)c1", "Potency": "inactive"}
{"smiles": "CCOC(=O)C1=C(CN2CCN(C(=O)c3ccco3)CC2)NC(=O)NC1c1ccc(C)cc1", "note": "(stereo not drawn)", "activity change, negative = inhibition": "inactive: 65.7%"}
{"smiles": "COc1ccccc1N1CCN(CCN2C(=O)CC3(CCCC3)CC2=O)CC1", "Potency": "inactive"}
{"smiles": "CN1Cc2sccc2C(c2ccc(O)c(O)c2)C1", "note": "(stereo not drawn)", "activity change, negative = inhibition": "inactive: 32.6% [at 56.9 µM]"}
{"smiles": "COc1ccccc1CNCCCCCCNCCCCCCCCNCCCCCCNCc1ccccc1OC", "activity change, negative = inhibition": "inactive: -7.55% [at 56.9 µM]"}
{"smiles": "CC(NC(=O)CNC(=O)[C@@H]1Cc2ccccc2CN1)c1ccccc1", "note": "(stereo partly drawn)", "activity change, negative = inhibition": "inactive: 55.3%"}
{"smiles": "C#C[C@]1(O)CC[C@H]2[C@H]3CCC4=Cc5oncc5C[C@]4(C)[C@@H]3CC[C@]21C", "activity change, negative = inhibition": "inactive: 19.5% [at 56.9 µM]"}
{"smiles": "CC(C)(C)NCC(O)c1ccc(O)c(CO)c1", "note": "(stereo not drawn)", "Potency": "inactive"}
{"smiles": "[N-]=[N+]=Nc1ccc(C(=O)CSC[C@H](NC(=O)CC[C@H](N)C(=O)O)C(=O)NCC(=O)O)cc1", "Potency": "active: 3.36 µM"}
{"smiles": "COc1ccc(-c2nn(-c3ccccc3)cc2/C=C(/C#N)C(N)=O)cc1[N+](=O)[O-]", "activity change, negative = inhibition": "inactive: -31.1%"}
{"smiles": "CC(=O)O[C@H]1Cc2ccccc2N(C(N)=O)c2ccccc21", "activity change, negative = inhibition": "inactive: 19.6% [at 56.9 µM]"}
{"smiles": "O=C(O)c1ccccc1Nc1cccc(OCc2ccc3ccccc3n2)c1", "activity change, negative = inhibition": "inactive: 4.09%"}
